Results on 87 compounds are retold here after ChEMBL document CHEMBL4888484, “Replenishing the malaria drug discovery pipeline: Screening and hit evaluation of the MMV Hit Generation Library 1 (HGL1) against asexual blood stage Plasmodium falciparum ,using a nano luciferase reporter read-out” (2022).

Among all 150,000 compounds or so, about 540 (0.36%) showed an effect of 50% or more. The list shows a part of the results.

This assay concerns Plasmodium falciparum. In words: Primary screen in NF54 nanoGlo assay, in single point, at 2uM, 72h; a lower Z score goes with more inhibition. Conditions: timepoint 72 hour. The class given is functional, Erythrocyte.
For the compound `Cc1ncnc2c1ncn2-c1cccc(NC(=O)c2ccc3c(c2)OCO3)c1`, the “% Inhibition” value is on record as -16% and the Z score was 2.27.
In the case of `CCc1cc(C(=O)N2CCC(CCN(CC)CC3CC3)CC2)sc1C`, the “% Inhibition” value stood at 6% and the Z score is -0.71.
As for `Cc1ccc(CC(=O)Nc2[nH]nnc2C(=O)N2CCCC2)cc1C`, the “% Inhibition” value came out at 10% and the Z score is -1.2.
As for `O=C(Nc1nn2cc(-c3ccccc3)nc2s1)C1CCCC1`, the “% Inhibition” value amounted to 10% and the Z score is on record as -1.13.
For the compound `Clc1ccc(-c2ccnc3nc([C@@H]4CCCO4)nn23)c(Cl)c1`, the “% Inhibition” value came to 8% and the Z score is -1.04.
For `CCn1cncc1S(=O)(=O)N1CCOCC2(CC2)C1`, the “% Inhibition” value is recorded as 1% and the Z score was -0.25.
`COc1cccc(C(=O)N(Cc2cccc(Cl)c2)[C@H]2CCS(=O)(=O)C2)c1`: the “% Inhibition” value is -13% and the Z score is reported as 1.12.
Consider `O=C(Nc1ccccc1F)c1nnc(CNS(=O)(=O)c2ccccc2)s1`, for which the “% Inhibition” value is 12% and the Z score is -1.41.
On the same counts, the results for `OC(Cc1ccccc1)CN(Cc1ccccc1)CC1CC(c2ccccc2F)=NO1` (centres undefined) are -8% and 1.68.
Consider `CCOc1ccc(CN2C(=O)CC[C@@]2(C)C(=O)NCCC(C)C)cc1`, for which the “% Inhibition” value was 2% and the Z score is reported as -0.24.
On to `Cc1ccc([C@@H]2CCCCCN2C(=O)Nc2ccccc2C(F)(F)F)s1`, for which the “% Inhibition” value was -2% and the Z score is reported as 0.31.
As for `CCCCN(C)S(=O)(=O)NCCc1cc(C)ccc1OC`, the “% Inhibition” value is on record as 3% and the Z score is listed as -0.61.
In the case of `CN1CC[C@](C)(CN(C)S(=O)(=O)Cc2ccc(Cl)cc2F)C1`, the “% Inhibition” value was -3% and the Z score is 0.62.
As for `c1c[nH]c(-c2nc([C@H]3CCOC3)nn2C2Cc3ccccc3C2)c1`, the “% Inhibition” value is given as -7% and the Z score worked out at 1.22.
On the same counts, the results for `O=C1CCCCCN1CCc1ncnn1C1CCCCC1` are 1% and -0.16.
Turning to `CNC(=O)c1ccccc1NCC(C)(C)C(=O)NC`, the “% Inhibition” value was 2% and the Z score was -0.2.
`Cc1n[nH]cc1CNC(=O)c1ccc(C(F)(F)F)c(=O)[nH]1`: the “% Inhibition” value is on record as 3% and the Z score is -0.42.
On the same counts, the results for `COc1ccc(-c2c(C)nn3c(O)cc(Cc4ccccc4)nc23)cc1OC` are 35% and -3.92.
Turning to `O=C(NC1CCCCCC1CO)c1cc(C2CC2)on1` (centres undefined), the “% Inhibition” value is -7% and the Z score was determined as 0.84.
For the compound `O=C(NCc1cccnc1Oc1ccc(F)cc1F)c1c[nH]c(=O)[nH]1`, the “% Inhibition” value is reported as -19% and the Z score was determined as 2.79.
For the compound `O=C(NC[C@H]1CCCC[C@@H]1O)c1cc2n(n1)CCC2`, the “% Inhibition” value was -4% and the Z score was determined as 0.58.
For the compound `Cc1cnc(N2CC[C@H](c3cnn(C)c3)C2)c(Br)c1`, the “% Inhibition” value is reported as -7% and the Z score is 1.29.
Turning to `Cc1nc(C(Cl)(Cl)Cl)nc(C(Cl)(Cl)Cl)n1`, the “% Inhibition” value is listed as 6% and the Z score is listed as -0.7.
On the same counts, the results for `CC1CCC(C(=O)N2CC[S+]([O-])C(C)(C)C2)O1` (centres undefined) are 23% and -2.6.
As to `CN(Cc1ccccc1)S(=O)(=O)N1CCO[C@H](c2ccccc2)C1`, the “% Inhibition” value is on record as -15% and the Z score came to 1.5.
On to `COc1ccc(NC(=O)Cn2cc(S(=O)(=O)N3CCCCC3)ccc2=O)cc1`, for which the “% Inhibition” value was -5% and the Z score worked out at 1.02.
Consider `C1CCC2(C1)C[C@@H](Nc1nc(C3CC3)ns1)CCO2`, for which the “% Inhibition” value is -16% and the Z score worked out at 2.44.
In the case of `COc1ccccc1NC(=O)COc1ccc(S(=O)(=O)N2CCCCCC2)cc1`, the “% Inhibition” value is on record as -49% and the Z score amounted to 5.79.
For `COc1cc(CN(C)[C@H]2CCc3nn(C)c(=O)n3CC2)ccc1OCC(C)C`, the “% Inhibition” value is recorded as 10% and the Z score is reported as -1.74.
As for `CCN(CCO)C(=O)NC1CCCC(C)C1C` (centres undefined), the “% Inhibition” value is on record as -6% and the Z score stood at 0.73.
Turning to `CC(C)(C)n1ncn(Cc2csc(C3CC3)n2)c1=O`, the “% Inhibition” value is listed as -9% and the Z score is on record as 0.92.
For `CNc1snc(C)c1C(=O)N(C)C[C@H](C)c1ccccc1`, the “% Inhibition” value is on record as -5% and the Z score was 0.46.
`O=C(c1ccco1)N1CCN(C(=O)c2nnn3c2CO[C@H](c2ccccc2)C3)CC1`: the “% Inhibition” value is on record as -13% and the Z score came out at 1.17.
As for `CN1C[C@H](NC(=O)Cc2ccccc2F)C[C@H]1CO`, the “% Inhibition” value is listed as -12% and the Z score came out at 2.26.
Take `COc1ccc(C[C@](C)(O)CNC(=O)CCc2ccccc2Br)cc1`: the “% Inhibition” value is -13% and the Z score came out at 2.23.
`CCCn1c(=O)cc(C)c2ccc(OCC(=O)N3CCOCC3)cc21`: the “% Inhibition” value is on record as -3% and the Z score turned out to be 0.49.
For `CCOC(=O)[C@@H]1C(=O)Nc2cc(OC)ccc21`, the “% Inhibition” value came to 35% and the Z score is given as -4.46.
In the case of `c1ccc(C2=NN(c3ccccc3)C3(c4ccccc4)CCC3N2)cc1` (centres undefined), the “% Inhibition” value is listed as -10% and the Z score is on record as 1.19.
In the same order, the values of `CO[C@H]1C[C@H]2CC(NCc3ccsc3)C[C@H]2C1` (some centres undefined) are -10% and 1.33.
As to `Cc1ccnn1CC(=O)N1COCC1(C)C`, the “% Inhibition” value is reported as -10% and the Z score came out at 0.99.
Turning to `CCCNC(=O)c1cc(-c2ccccc2)cn1C`, the “% Inhibition” value is -1% and the Z score is 0.18.
Turning to `Cc1ccc(C(=O)NCc2ccccc2CN2CCOCC2)cc1N(C)S(C)(=O)=O`, the “% Inhibition” value is 12% and the Z score is -1.4.
On to `CN(Cc1cnccn1)C(=O)COCc1nc2ccccc2[nH]1`, for which the “% Inhibition” value worked out at 0% and the Z score is reported as 0.01.
`CCc1nc(C)ncc1C(=O)NCc1nc(C(F)(F)F)cs1`: the “% Inhibition” value is reported as -4% and the Z score is 0.45.
On the same counts, the results for `Cc1nn(-c2ccc3nncn3n2)c2c1[C@@H](c1ccc(O)c(Cl)c1)CC(O)=N2` are -11% and 1.27.
In the same order, the values of `CCCOC[C@H]1CCN(C(=O)c2cnc(OC)nc2)C1` are -12% and 2.03.
On the same counts, the results for `CCNC(=O)N1CCCCC[C@@H]1CN1CCOCC1` are -3% and 0.46.
As for `CC(=O)Nc1cccnc1C(=O)NC[C@H](O)C1CCCCC1`, the “% Inhibition” value is -1% and the Z score stood at 0.22.
Turning to `Cc1cccc(S(=O)(=O)CC(=O)N[C@H](c2ccccc2)C2CC2)c1`, the “% Inhibition” value is recorded as -2% and the Z score was found to be 0.26.
Regarding `Nc1nc(COC(=O)c2c(F)cccc2Cl)nc(Nc2ccccc2)n1`, the “% Inhibition” value is listed as -13% and the Z score came to 1.53.
For the compound `CCCOc1ccc(CN(CCC)C(=O)c2ccc3c(=O)n4c(nc3c2)CCCCC4)cc1OC`, the “% Inhibition” value is -2% and the Z score came to 0.19.
Regarding `Fc1cc(Cn2ccnc2)cc(-c2cnn(C[C@H]3CCOC3)c2)c1`, the “% Inhibition” value was -13% and the Z score is 2.09.
As to `Cn1nc(C(=O)Nc2nc3ccccc3[nH]2)ccc1=O`, the “% Inhibition” value is -16% and the Z score stood at 2.86.
In the same order, the values of `CC(C)c1n[nH]c2c1CN(CCCS(=O)(=O)N(C)C)CC2` are 7% and -0.97.
On the same counts, the results for `CCOc1ccccc1C(=O)NCc1cncc(N2CCCC2=O)c1` are -21% and 3.86.
`Cc1ccccc1CNC(=O)CC(C)C`: the “% Inhibition” value is -13% and the Z score amounted to 1.69.
Turning to `O=C(c1ccccc1)N1C[C@H](c2nnc(-c3ccncc3)o2)C2(CCOCC2)C1`, the “% Inhibition” value is recorded as -2% and the Z score was 0.44.
In the same order, the values of `Cc1cc(C(=O)NC2CCN(C3CC3)CC2)c(Cl)cc1F` are -9% and 1.53.
As for `Cc1ncoc1C(=O)N1CCN[C@H](c2ccccc2)C1`, the “% Inhibition” value is -8% and the Z score is reported as 1.4.
Take `Cc1nc(CC(=O)NC[C@H](O)COc2ccc(F)cc2)cs1`: the “% Inhibition” value is -3% and the Z score is 0.65.
Consider `CCOc1ccc(CN2CC(c3nc(C)no3)C2)cc1`, for which the “% Inhibition” value is given as -11% and the Z score turned out to be 2.
For `CCn1nnc2cc(C(=O)N3CCC(C(=O)NC4CCCC4)CC3)ccc21`, the “% Inhibition” value is given as -10% and the Z score came out at 1.93.
In the case of `COCCN1C[C@@H](CNc2nccc(-c3c(C)nn(C)c3C)n2)CC1=O`, the “% Inhibition” value is reported as -1% and the Z score is given as 0.25.
`COc1ccc(-c2cnnc(NCC[C@H]3CCCCO3)n2)c(OC)c1`: the “% Inhibition” value is reported as -13% and the Z score is 1.73.
For the compound `CC1CCc2c(cc(-c3ccccc3)n2-c2ccc(C(=O)NC3CCCCC3C)cc2)C1` (centres undefined), the “% Inhibition” value is on record as -5% and the Z score is 0.95.
`CCN1CCc2cc(OC)c(OC)cc2C1C(NS(=O)(=O)c1ccccc1)C(C)C` (centres undefined): the “% Inhibition” value is 0% and the Z score was found to be 0.02.
In the same order, the values of `C#CCOCCC(=O)Nc1n[nH]c2c(Cl)cccc12` are 0% and 0.04.
On the same counts, the results for `CC(C)(CN1CCCCCC1)NC(=O)CCC(F)(F)F` are -13% and 1.67.
For `Cc1nc(-c2ccc(C)c3ncccc23)n(C)n1`, the “% Inhibition” value is -17% and the Z score is listed as 1.76.
On the same counts, the results for `CCOC(=O)c1csc([C@@H]2CCCN2C(=O)Nc2ccon2)n1` are -17% and 2.08.
On to `O=C(Nc1ncnn1-c1ccccc1)[C@H]1CCCC(F)(F)C1`, for which the “% Inhibition” value is 0% and the Z score is given as 0.07.
Regarding `COC[C@@H](O)CNC(C)c1cc(C)oc1C` (some centres undefined), the “% Inhibition” value is recorded as -6% and the Z score came to 0.71.
In the same order, the values of `Cc1cc2occ(CC(=O)Nc3nc(-c4ccc(C5CCCCC5)cc4)cs3)c2cc1C(C)C` are -11% and 1.87.
For the compound `O=C(N[C@H]1CC(=O)N(c2ccc3c(c2)OCCO3)C1)c1ccc(S(=O)(=O)N2CCOCC2)cc1`, the “% Inhibition” value is recorded as -6% and the Z score amounted to 1.09.
Take `Cc1cccc(C(=O)NCCc2cncn2C)c1Cl`: the “% Inhibition” value is reported as -8% and the Z score is 0.82.
In the same order, the values of `CCCc1nn2c(c1-c1ccc(C)c(S(=O)(=O)NCCOC)c1)NC(=O)CCC2=O` are -1% and 0.07.
On to `Cc1nn(C)c2nc(N(C)Cc3ccccn3)sc12`, for which the “% Inhibition” value turned out to be 11% and the Z score was -1.35.
For `CCOCc1c(C(=O)N2CCCN(C(C)=O)CC2)oc2ccccc12`, the “% Inhibition” value is listed as -1% and the Z score was 0.14.
As to `COC(=O)c1nc(N)n(C(=O)c2ccccc2)n1`, the “% Inhibition” value is reported as -10% and the Z score was 0.83.
On to `O=C(Nc1cccc(-c2cn[nH]c2)c1)c1cnns1`, for which the “% Inhibition” value is recorded as -6% and the Z score amounted to 1.16.
`CCN(CC)[C@H](CNC(=O)C1CCC1)Cc1ccccc1`: the “% Inhibition” value is reported as 2% and the Z score was -0.29.
On the same counts, the results for `Cc1cc(C(=O)NC2(c3ncon3)CCOCC2)c(Cl)cc1F` are -1% and 0.12.
Take `Cc1ccc(C)c(S(=O)(=O)NCCNC(=O)NCc2cnn(C)c2)c1`: the “% Inhibition” value is -3% and the Z score amounted to 0.34.
Take `C[C@H](NC1CCN(C)CC1)c1cc2cc(Br)ccc2[nH]1`: the “% Inhibition” value is 21% and the Z score is on record as -3.73.
For `CCNC(=O)[C@@H]1CCN(c2ccccc2C)C1=O`, the “% Inhibition” value is -9% and the Z score turned out to be 0.84.
As for `CN(C(=O)[C@@H]1Cc2ccccc2O1)c1ncccc1F`, the “% Inhibition” value was -8% and the Z score stood at 1.19.
For `CCc1cnc(C)nc1N[C@H]1C[C@@H](c2nnc(CO)n2C)C1`, the “% Inhibition” value stood at 0% and the Z score is 0.05.
